Data from publication PMC4336329 (PLoS ONE, 2015).
The campaign covered roughly 310,000 compounds. About 2,200 (0.71%) showed an effect of 50% or more. Effects have a minus sign here. Some of the results follow.

target: human ether-à-go-go-related gene (hERG) potassium channel (human, UniProt Q12809); assay: primary screen, population patch clamp on CHO cells stably expressing hERG
Sequence (Q12809 whole entry, looked up): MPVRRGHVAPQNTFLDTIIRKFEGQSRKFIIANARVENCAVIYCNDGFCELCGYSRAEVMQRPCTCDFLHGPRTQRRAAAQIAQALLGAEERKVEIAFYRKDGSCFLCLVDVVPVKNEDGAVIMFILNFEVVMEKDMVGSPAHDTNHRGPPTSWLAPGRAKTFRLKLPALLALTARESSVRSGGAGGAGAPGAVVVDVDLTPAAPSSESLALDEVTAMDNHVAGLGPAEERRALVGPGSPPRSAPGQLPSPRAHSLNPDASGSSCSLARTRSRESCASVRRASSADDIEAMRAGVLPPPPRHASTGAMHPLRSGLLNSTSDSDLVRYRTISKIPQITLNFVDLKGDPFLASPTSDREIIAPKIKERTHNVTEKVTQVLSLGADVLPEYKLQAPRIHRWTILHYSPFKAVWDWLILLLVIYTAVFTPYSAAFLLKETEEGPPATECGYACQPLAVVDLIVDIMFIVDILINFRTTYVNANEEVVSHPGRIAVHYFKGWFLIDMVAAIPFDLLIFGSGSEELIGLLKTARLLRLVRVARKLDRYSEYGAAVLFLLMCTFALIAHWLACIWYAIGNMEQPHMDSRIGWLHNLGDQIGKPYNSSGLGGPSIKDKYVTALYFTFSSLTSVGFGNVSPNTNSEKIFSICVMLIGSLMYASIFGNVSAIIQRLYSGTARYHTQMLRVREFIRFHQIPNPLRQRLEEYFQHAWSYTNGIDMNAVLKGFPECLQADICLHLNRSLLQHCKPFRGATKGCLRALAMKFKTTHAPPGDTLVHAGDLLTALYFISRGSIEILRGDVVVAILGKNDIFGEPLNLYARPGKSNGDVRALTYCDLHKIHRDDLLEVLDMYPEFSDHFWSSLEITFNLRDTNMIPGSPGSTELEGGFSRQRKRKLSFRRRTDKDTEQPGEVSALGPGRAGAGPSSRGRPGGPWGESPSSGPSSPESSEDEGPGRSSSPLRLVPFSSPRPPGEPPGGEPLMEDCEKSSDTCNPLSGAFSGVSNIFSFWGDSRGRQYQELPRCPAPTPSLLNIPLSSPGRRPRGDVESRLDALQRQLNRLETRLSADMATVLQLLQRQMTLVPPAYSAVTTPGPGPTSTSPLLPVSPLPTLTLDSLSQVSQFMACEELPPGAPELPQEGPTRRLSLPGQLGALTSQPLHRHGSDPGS

| SMILES | hERG current change (%, negative = inhibition) at 1uM [%] |
| --- | --- |
| COc1ccc([N+](=O)[O-])c(S(=O)(=O)c2ccccc2)n1 | 11.3 |
| CSc1cccc(NC(=O)C2CCN(C(=O)c3ccccc3C)CC2)c1 | 12.3 |
| CCCSc1ccc(-c2nn(-c3ccccc3)cc2/C=C(/C#N)C(=O)NCCCOC)cc1 | 6.97 |
| O=C(CCN1C(=O)/C(=C/c2ccc(Cl)cc2)SC1=S)NC1C=CS(=O)(=O)C1 (stereo not drawn) | -2.52 |
| COc1ccc(NC(=O)CN2C(=O)NC3(CCCC3)C2=O)cc1OC | 13.7 |
| COc1ccccc1NC(=O)Cn1c2ccc(F)cc2c2nc3n(c(=O)c21)CCS3 | 9.38 |
| O=C1CC(Sc2ccc(Cl)cc2)C(=O)N1c1ccc2c(c1)OCCO2 (stereo not drawn) | 14.3 |
| COc1ccc(-c2csc(NC(=O)Nc3ccccc3)n2)cc1 | 13.3 |
| CCOC(=O)C(O)(CC(=O)c1ccc(Cl)cc1)C(=O)OCC | 7.58 |
| O=C(CCCn1c(=S)[nH]c2ccsc2c1=O)NCCc1ccccc1 | 14.2 |
| O=C(NCc1ccco1)C(NS(=O)(=O)c1cccc2nsnc12)c1ccccc1 (stereo not drawn) | 7.81 |
| O=C(c1ccc(-c2ccccc2)c(F)c1)C1CCCN(CCCn2cccn2)C1 (stereo not drawn) | -38.6 |
| CN1CCN(C2=Cc3ccccc3Sc3cc(F)c(F)cc32)CC1.CS(=O)(=O)O | 6.5 |
| Cc1cccc(OCc2nc(-c3ccc(-n4cccc4)cc3)no2)c1 | 12.2 |
| O=C(CN1CCN(c2ncccn2)CC1)NCc1ccc2c(c1)OCO2 | 13.7 |
| O=C(CSc1nnnn1-c1ccccc1)Nc1ccc(Cl)cc1 | -9.11 |
| CC1(C)C(=O)NCCN1C(=O)CCCC(=O)O | 1.31 |
| CCOc1c(Br)cc(CNc2ncn[nH]2)cc1OC | 9.07 |
| CCCc1cc(NCCCN2CCOCC2)n2c(nc3ccccc32)c1C#N | -37 |
| CCCCc1nc2ccccc2c(=O)n1-c1ccccc1[N+](=O)[O-] | 10.5 |
| CCOC(=O)c1c(NC(=O)CSc2n[nH]c(-c3ccco3)n2)sc(C)c1C | 10.3 |
| COc1ccc2c(c1OC)C(=O)OC2CC(=O)c1ccc(O)cc1 (stereo not drawn) | 5.01 |
| Cc1cc(C)c(Cn2c3ccccc3c3cnn(CC(=O)NCCN4CCOCC4)c(=O)c32)c(C)c1 | 11.5 |

| SMILES | hERG current change (%, negative = inhibition) at 1uM [%] |
| --- | --- |
| C=CCn1c(O)c(C(CC)=NC2CC2)c(=O)[nH]c1=O | 7.5 |
| Cc1ccc(NC(=O)c2nnn(-c3ccc4c(c3)OCCO4)c2N)cc1 | 13.9 |
| COC(=O)c1ccc(C(=O)OC)c(NC(=O)c2cccnc2)c1 | 10.6 |
| Cc1ccsc1C1C(C#N)=C(N)OC2=C1C(=O)CC(C)(C)C2 (stereo not drawn) | 3.48 |
| CC(=O)[C@H]1[C@H](C#N)C[C@H]2[C@@H]3CC=C4C[C@@H](O)CC[C@]4(C)[C@H]3CC[C@@]21C | 13.8 |
| CC(=O)c1ccc(NC(=O)CCc2c(C)nn(-c3ccc(N4CCOCC4)nn3)c2C)cc1 | 11.4 |
| O=C(O)CCCc1nc(-c2ccc(Cl)cc2)no1 | 2.59 |
| NC(=S)COc1ccccc1 | 11.6 |
| C#CC[N+]1(C)[C@@H]2CC(OC(=O)C(CO)c3ccccc3)C[C@H]1C(O)C2.[Br-] (stereo partly drawn) | 2.35 |
| O=C(NCCO)/C(=C\c1ccco1)NC(=O)c1ccco1 | 3.44 |
| COc1ccc(Cl)cc1C(=O)CSc1nc(N)cc(N)n1 | 6.37 |
| CN(Cc1cc(=O)n2ccsc2n1)Cc1nc2ccccc2c(=O)[nH]1 | 4.7 |
| NC(=O)c1ccccc1NC(=O)CCCCCn1nnc2ccccc2c1=O | 4.56 |
| CN1CCN(c2ccc(NC(=O)c3cc([N+](=O)[O-])ccc3N3CCOCC3)cc2)CC1 | -5.88 |
| CCCCc1nnc(NC(=O)CSc2nc(N)cc(=O)[nH]2)s1 | 11.1 |
| Cc1c2cn[nH]c(=O)c2c(C)n1Cc1ccc(F)cc1 | 7.34 |
| O=C(/C=C/Nc1cccc(C(F)(F)F)c1)c1ccco1 | 11.2 |
| O=C(CN1CCN(Cc2ccccc2Cl)CC1)N/N=C/c1cccs1 | 9.84 |
| CCCCc1c(C)nc(N)[nH]c1=O | 14.5 |
| CC(C)Oc1ccc(C2CC(=O)N(c3cccc(C(=O)O)c3)C2=O)cc1 (stereo not drawn) | 12.9 |
| Cc1nonc1C(=O)N/N=C/c1ccc(O)cc1O | 11.7 |
| COc1cccc(-n2nnc3c(=O)n(C/C=C/c4ccccc4)cnc32)c1 | 3.43 |
| C=CCC1(N(C(C)=O)c2ccccc2)CCCCC1 | -6.45 |

| SMILES | hERG current change (%, negative = inhibition) at 1uM [%] |
| --- | --- |
| COc1cc(-c2nc3ccccn3c2/N=C/c2cccc(OC)c2O)ccc1O | 3.1 |
| CC(c1nc2ccccc2c(=O)[nH]1)N(C)CCOc1ccc(Cl)cc1 (stereo not drawn) | 3.02 |
| CCCn1c(SCc2nc(N)nc(N3CCCCC3)n2)nc2c1c(=O)n(C)c(=O)n2C | 5.4 |
| COc1ccc(C(=O)C(C)OC(=O)c2sc(C)nc2C)cc1 (stereo not drawn) | 10 |
| Cc1c(N=C(N)/N=C(\N)Nc2ccccc2)c(=O)n(-c2ccccc2)n1C | 6.7 |
| Cc1ccc(Cn2ccc(NC(=O)CCSc3nc(-c4ccco4)cc(C(F)(F)F)n3)n2)cc1 | 4.4 |
| Cc1ccc(-n2c(CCc3ccccc3)n[nH]c2=S)cc1C | 11.7 |
| Cc1c(C(C)C)c(=O)n(-c2ccc(S(=O)(=O)N3CCOCC3)cc2)n1C | 8.06 |
| COc1ccc(CCNC(=O)CSc2nnc(-c3ccccc3)o2)cc1OC | 0.157 |
| COc1ccc(-n2c(SCC(=O)NCCCN3CCCC3=O)nnc2C(C)N2CCCCC2)cc1 (stereo not drawn) | 15 |
| N#CC1=C(N)Oc2n[nH]c(-c3cccs3)c2C1c1ccco1 (stereo not drawn) | 16.8 |
| CCOC(=O)c1cc2c(=O)c3cc(C)ccc3oc2nc1C | 14.8 |
| Cn1c(=O)n(/N=C/c2ccccc2)c2ccccc21 | 9.38 |
| CCCNC(=O)N(C)c1nncnc1C(=O)NC | 5.97 |
| CC(C)(C)c1cccc(OCCCSc2ncccn2)c1 | 1.69 |
| COC(=O)c1ccccc1NC(=O)Nc1ccc(Br)cn1.Cl | 13.1 |
| CCCOc1ccc(N2C(=O)CC(N(CCc3ccccc3)C(=O)c3ccccc3)C2=O)cc1 (stereo not drawn) | 12.9 |
| CCc1ccccc1NC(=O)NCc1ccccn1 | 12 |
| Cc1ccccc1C(=O)N1CCC(C(=O)N2CCN(c3ncccn3)CC2)CC1 | 8.94 |
| O=S(=O)(c1ccccc1)c1nc(-c2ccccc2Cl)oc1NCCN1CCOCC1 | 1.14 |
| CCCOc1ccc(/C=N/NC(=O)c2ccc3c(c2)OCO3)c(OCCC)c1 | 8.54 |
| COc1ccc(COC(=O)CCc2c[nH]c3ccccc23)cc1F | 17.6 |
| N#CC1=C(N)OC2=C(C(=O)CCC2)C12C(=O)N1CCCc3cccc2c31 (stereo not drawn) | 8.35 |

| SMILES | hERG current change (%, negative = inhibition) at 1uM [%] |
| --- | --- |
| CCCN1C2CCCC1CC(NC(=O)c1cccc([N+](=O)[O-])c1)C2 (stereo not drawn) | -4.26 |
| Cc1ccc2c(c1)c(=O)c1c3n2CCN(CC#N)C3CC1 (stereo not drawn) | 12.3 |
| Cc1ccc(S(=O)(=O)N2CCOCC2)cc1C(=O)N1CCN(S(=O)(=O)c2cccc(F)c2)CC1 | 10.9 |
| O=C1CCN(CCc2ccccc2)CCN1CCO | 9.41 |
| COc1cccc(C(=O)NCCS(=O)(=O)N2CCCC2)c1 | -3.42 |
| COc1ccc(C(=O)NCCN2CCOCC2)c(OC)c1 | 15 |
| COc1cc(C2c3[nH]c4ccccc4c3CCN2Cc2cn(C)nc2C)ccc1F (stereo not drawn) | 13.9 |
| COC(=O)c1ccccc1N=Nc1c(C)[nH][nH]c1=O | 8.34 |
| O=c1cc(NCc2ccco2)[nH]c(=O)n1-c1ccc(Br)cc1 | 9.42 |
| COCc1cc(=O)n2[nH]c(SCc3ccccc3)nc2n1 | -1.58 |
| Cc1cccc(C(=O)NCCc2nnc(SCC(=O)Nc3cccc(C(=O)O)c3)n2C)c1 | 8.54 |
| C/C(=N\NC(=S)Nc1cccc(C)c1)c1ccccc1 | 2.68 |
| Cc1ccc(C)c(NS(=O)(=O)c2cc(C(=O)NCc3ccco3)ccc2C)c1 | 4 |
| O=C(CSc1nnc(NC2CCCCC2)s1)Nc1ccc2c(c1)C(=O)c1ccccc1C2=O | 7.75 |
| O=C(NC1CCCC1)C(c1ccccc1)N(Cc1ccco1)C(=O)Cc1cccs1 (stereo not drawn) | 1.47 |
| Cc1ccc(Cn2c(C3CCCN3c3nc(-c4cc(Cl)c(N)c(Cl)c4)cs3)nc3cc(C(=O)NCCCO)ccc32)cc1 (stereo not drawn) | 10.2 |
| C=C(C)C1CC=C(C)/C(=N/NC(=O)c2ccc(NC(=O)CCC)cc2)C1 (stereo not drawn) | -10.4 |
| O=C(CN1CCc2ccccc2C1)Nc1ccc(Br)cc1 | -0.231 |
| Cc1ccc2c(c1)N(C(=O)NC1CCCCC1)C(C)(C)CC2C (stereo not drawn) | 3.91 |
| CCC(C)n1c(SCc2ccccc2)nc2ccsc2c1=O (stereo not drawn) | -2.95 |
| C/C(Cc1ccccc1)=N\NC(=O)CNC(=O)c1ccccc1Br | 12.5 |
